Data from the supplement of paper PMC12632987.
Whole data set: some 4,500 sequences, median “median log2 fold change of GCK-ALFA target abundance (FLAG IP / Myc IP barcode read proportion)” near 0.078, cut for the lowest 2% near -0.6. The list shows a part of the results.

B1: GBRAP_52_6064 (protein)
chain: SEKKIEEYAEKIAEAIKAGDKEKALELIKKMIKELSLEEIKETLVLAAKKVAELGEEEHELFVEVLEEAEDLLIEAGISEEDALLIVGDAEAALAKAVAA
B2: GBRAP_52_6125 (protein)
chain: MRERARELVLRMVELVKEGREEEARRLAREAVETLDDEELELVADELAELIREASPEEQEYLLRVAEILAEELERAGRDEVLADYVLARAAAALYEKEQA
B3: GBRAP_150_3887 (protein)
chain: DLETLLAIASTAKDLLEESIETGGELLEALLKVVKALVDEAKEVSEELKKLAEEALKLVEEALKLKKEGGPKEEIEKKLKEALKVVEKIEKEVEKLIKEK
B4: GBRAP_160_4305 (protein)
chain: KEEFEKLKKEIKEIAEEALKMIEGQSKEEQKTIVKVALGEIILLVDESPAVSDELEEKIDEIADEAEAYLDANPDLSEEEIKELLKEAVEKILELIDKES
B5: GBRAP_35_5600 (protein)
chain: DTDEFAVDSLIDQIEALIKLVPEEDVETLAAIGNLLIEDAEELIEDLKNNKEGLERILKALKELIEALEKHHKDNPLMQEVIKRVKELAEEAERKIKEIK
B6: GBRAP_160_4802 (protein)
chain: SERVEKVVEIFREELEEALEMARGETNEERVNIFDVELGAAIMEAIELGLLNDEEEEVAAEVRDRLVARIRANPDLTEEELRALAEEAVEELRERLLELE
B7: GBRAP_11_2637 (protein)
chain: KKEKLKKAAETAKKAIEAVKKLIEEGTDDEELQKEIKKLLEELAKLVKEVGDEALKRDVEIAKELWEEAQKDKENAVFYLNLLRAQLEIIRAELEERIEE
B8: GBRAP_184_5241 (protein)
chain: KVVDREVVAKTPEEAKEKLEKVREEARKSGAKVDLFVTLENATPELVKTVFELIKELKEEGLLNFVEVEVESFADEETKELAFDLAHEVGVDALAYNDEG
B9: GBRAP_160_4684 (protein)
chain: SEKVEKFKKFLEEEFAEVVELFDEVSREELAAFTRVAFGQIILEAEELGLLTDKLAEVIDEEEDAIVTAILTRPDLTREEFAAMLEEAAKKIIEELEKES
B10: GBRAP_53_6419 (protein)
chain: AAAKKAALKAEILALAKAAGAADPDETLALVAEIGAKLKELKAAGASDEEITALAKEVAKALKAAGAPDRALVALADILAALGLEDATAEVVELIVEDLE
B11: GBRAP_160_4438 (protein)
chain: SEKVEKAKKEIKEIFEETLEMMKGETPEERIVFVRVAEGEVLLLLEELGLLTDELDEVIDEEFEKIIETIKKNPNITEEELEKLLKEAEEKIIEKLEKLF
B12: GBRAP_78_6591 (protein)
chain: EIDEAIDELLKATNEAMKLLAKNKSELALDILGELIDESTEIWEAREEENDKEKILKEAKALAETLKKALEHEDKFSEETVKAIKEALKAAEKLIKLLEK
B13: GBRAP_160_4870 (protein)
chain: SEKIKELKKEVEEEAEFVIELAPELSAEQVATLFEGEFGSVIIEAAESEAVSDEALDKMVEIVDEAVAKLLANKNASVEEHKKIIEEAREKIIKILEEEE
B14: GBRAP_52_6134 (protein)
chain: MKEELRKQAREILELVKAGKLAEAKALAEKLVAELNDEELRLFAEEFAEVVRELPAEDLDAAAEALDILVDAMEAAGVDESIISLFIGKGTRAMYEVEQR
B15: GBRAP_11_2730 (protein)
chain: KKEELEEIKKLAEEAAKLVDELIEEGTDNEELIAKLEKKLKELAEKVKKYADEDLKKLVEIAQEEFQLALENPETAVEHLQNALAALRVLAGQTLLEIEE
B16: GBRAP_184_5043 (protein)
chain: KIFEETIKAENLEELKAKLDKLKEKVKNFKGELIVLVESPKFTKEMVETLISRLQEMLDEGYVSSVTLGLDGEMSEEVIDLAIELADKAGIKLTIALEEE
B17: GBRAP_55_6437 (protein)
chain: SEDEELDKEASESLTEVAAGLVEDPEAMERVIRKMVESLAGKPIYITKEAVDLLETDEEKERFLKTLVRAAKEAKNVTGIKLIDTSEEVEKMLEKAKKEV
B18: GBRAP_52_6215 (protein)
chain: MEEEIEKMAEKIAEALIAGDEEKLEKLVKEAIEKFSLEELEEIAARTGAILARRLAGDEERIVALIDKFEEAALKAGLSEDDALLLEGAAEAAAIKELLA
B19: GBRAP_74_6509 (protein)
chain: MEEKLAALKAAAAAKDAKEVAELLKEIVEEGSLETIEEAAKIAVAFVKENLDKLSKEELEALADALAALADKLMELGGDSETVLAVVNAAIALEKKLAAL

target: GABARAP, O95166; test: median log2 fold change of GCK-ALFA target abundance (FLAG IP / Myc IP barcode read proportion) (log2 ratio); each designed protein is fused to an ALFA-tag nanobody in HEK293 cells to bring the named protein to FLAG-tagged glucokinase (GCK); Myc marks an untargeted standard; higher = target protein stabilised (more abundant); conditions: target protein: 3xFLAG-MCP-GCK-ALFA reporter; HEK293 landing pad (RPLP)
Sequence (O95166 whole entry, the tested form may be a part): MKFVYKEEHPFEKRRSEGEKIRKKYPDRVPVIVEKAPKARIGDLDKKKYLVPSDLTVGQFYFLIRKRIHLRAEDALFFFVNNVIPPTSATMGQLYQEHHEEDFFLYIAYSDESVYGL
Outline: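 An ALFA-nanobody-fused binder library was recombined into HEK293 landing-pad cells and induced with 2 μg mL^−1 doxycycline. Cells were transfected with a plasmid expressing a FLAG-tagged target and a Myc-tagged standard. After 48 h, lysates underwent anti-FLAG and anti-Myc immunoprecipitation, and circular RNA barcodes were reverse transcribed, amplified and sequenced. Target abundance is the per-binder median log2 ratio of FLAG to Myc barcode read proportions. Barcodes needed ≥10^−7 proportion in both replicates, binders ≥3 barcodes per replicate, and a 10^−6 pseudocount was added; the two replicates were pooled.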

Row | Binder | median log2 fold change
1 | B1 | -0.457
2 | B2 | -0.255
3 | B3 | 0.344
4 | B4 | 0.0202
5 | B5 | -0.0627
6 | B6 | 0.0108
7 | B7 | 0.0575
8 | B8 | 0.0802
9 | B9 | -0.549
10 | B10 | 0.135
11 | B11 | 0.03
12 | B12 | -0.0224
13 | B13 | -0.41
14 | B14 | 0.0637
15 | B15 | 0.181
16 | B16 | 0.279
17 | B17 | 0.125
18 | B18 | 0.103
19 | B19 | 0.126
